Reference: PubChem BioAssay AID1347120 (National Center for Advancing Translational Sciences (NCATS), 2019)
In all, about 390,000 compounds went through this assay and about 930 (0.24%) were called active. The shares of active, inactive and inconclusive entries below differ from those in the screen. The call rests on the fitted dose curve; in most records, active means well fitted activation curve with a large enough effect; inconclusive means small, poorly fitted or top-dose-only effect; inactive means no such curve, though single readings can be large or run the other way. Potencies beside an inconclusive call are fits to weak or partial responses and may not hold up.

assay: qHTS for Suppressors of FUS Proteinopathy: Primary screen using FUS-linked yeast assay; further: nearly all actives have a fitted effect of over 55% in size;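 on growth rescue (activation): plate controls were DMSO vehicle for no effect and reference control for full effect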; details: S. cerevisiae FUS-expressing, OD600, 24 h; Potency: growth rescue; growth rescue (activation): at 76.6 µM (top of the series)
Summary of the method: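 Toxicity suppression screen in FUS-yeast. Cells induced with 2% galactose, starting OD 0.005, treated 24hr at 30C with compounds at multiple final concentrations; growth by OD600.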
Potency means the concentration at half of the fitted maximal effect; tags describe the fitted curve by direction and shape.

Q: With `O=C(C1CCC1)N1CCc2cc(S(=O)(=O)N3CCCC3)ccc21` as the compound, how does the Potency read?
A: inactive

Q: Which Potency does the source give for `CC(=O)c1cccc(NC(=O)C(Sc2ncnc3ccccc23)c2ccccc2)c1` (stereo not drawn) here?
A: inconclusive: 14.1 µM [activator, partial curve, poor fit]

Q: With `O=C(NCc1ccccc1)C1=C[C@H](c2csc3ccccc23)C[C@H](OCc2ccc(CO)cc2)O1` as the compound, how does the Potency read?
A: inconclusive: 28.2 µM [activator, single point]

Q: Which Potency does the source give for `CSc1ccc(S(=O)(=O)NCC(=O)OCC(=O)N(Cc2ccccc2)C(C)C)cc1[N+](=O)[O-]` here?
A: inconclusive: 50.1 µM [activator, single point]

Q: With `CCS(=O)(=O)c1ccccc1C(=O)N(Cc1cccnc1)c1nc2cc(C)c(C)cc2s1` as the compound, how does the Potency read?
A: inconclusive: 50.1 µM [activator, single point]

Q: For `Cc1ccc(-n2nc3c(c2NC(=O)/C=C\c2ccc4c(c2)OCO4)CSC3)c(C)c1`, which Potency is on record?
A: inconclusive: 39.8 µM [activator, single point]

Q: Which Potency does the source give for `O=S(=O)(Nc1cccc(-c2cn3c(n2)SCC3)c1)c1ccccc1F` here?
A: inconclusive: 31.6 µM [activator, single point]

Q: For `O=C1CC(c2cc(F)ccc2F)c2cc3c(cc2N1)CCC3` (stereo not drawn), which Potency is on record?
A: inactive

Q: For `CCOc1ccc(-c2noc(-c3ccncc3)n2)cc1OCC`, which Potency is on record?
A: inactive

Q: Which Potency does the source give for `Cc1ccc(CN2CCNC(=O)C2CC(=O)NC2CCCCCC2)cc1` (stereo not drawn) here?
A: inconclusive: 44.7 µM [activator, single point]

Q: With `Cc1cccc(C)c1OCCCCn1c(C2CC(=O)N(c3ccc(F)cc3)C2)nc2ccccc21` (stereo not drawn) as the compound, how does the Potency read?
A: inconclusive: 35.5 µM [activator, single point]

Q: With `CC(=O)Nc1ccc(NC(=S)NC(=O)/C=C/c2ccco2)cc1` as the compound, how does the Potency read?
A: inconclusive: 17.8 µM [activator, partial curve, poor fit]

Q: With `CCC(=O)Nc1sc2c(c1C(=O)Nc1ccccc1C)CCC(C)C2` (stereo not drawn) as the compound, how does the Potency read?
A: inactive

Q: Which Potency does the source give for `Cc1cccc(N2C(=O)N3[C@H]4c5ccccc5OC[C@@H]4[C@@H](c4ccccc4)[C@@]3(C)C2=O)c1` here?
A: inconclusive: 28.2 µM [activator, single point]

Q: For `COCc1cc(C)[nH]c(=O)c1C(=O)NC12CC3CC(CC(C3)C1)C2`, which Potency is on record?
A: inactive

Q: Which Potency does the source give for `CC1=NNC(=O)/C1=C\c1cn(-c2ccccc2)nc1-c1ccccc1` here?
A: inconclusive: 25.1 µM [activator, partial curve]

Q: For `O=C(NCC1CCCO1)c1ccc(CNS(=O)(=O)c2ccc(F)c(Cl)c2)cc1` (stereo not drawn), which Potency is on record?
A: inactive

Q: Which Potency does the source give for `CCOc1ccc2nc(NC(=O)CN3C(=O)C4CCCCC4C3=O)sc2c1` (stereo not drawn) here?
A: inconclusive: 31.6 µM [activator, partial curve, poor fit]

Q: Which growth rescue (activation) does the source give for `COc1ccc(S(=O)(=O)N(CC(=O)NCC2CCCO2)c2ccc(F)cc2)cc1OC` (stereo not drawn) here?
A: inconclusive: 48.7% [activator]

Q: For `CCOc1ccc(CNC(=O)CCC(=O)N2CC3CCCN3c3ccccc32)cc1` (stereo not drawn), which Potency is on record?
A: inconclusive: 39.8 µM [activator, single point]

Q: For `Cc1cc(C)c2c(=O)n(-c3ccccc3)[nH]c2n1`, which Potency is on record?
A: inactive

Q: With `COc1ccccc1-c1noc(CSc2nnc(Cc3ccccc3)n2-c2ccc(C)c(C)c2)n1` as the compound, how does the Potency read?
A: inconclusive: 35.5 µM [activator, single point]

Q: For `C[C@@H]1CCCCO[C@H](CN(C)Cc2ccc3c(c2)OCO3)[C@@H](C)CN([C@H](C)CO)C(=O)c2cc(NC(=O)c3ccccc3)ccc2O1`, which Potency is on record?
A: inactive

Q: For `C=CC[n+]1c(-c2ccc(C)cc2)csc1NNC(=O)Nc1ccccc1`, which Potency is on record?
A: inconclusive: 50.1 µM [activator, single point]

Q: With `Cc1c(-c2cccc(Cl)c2)nc2ccccc2c1C(=O)OC/C(O)=C(\C#N)c1nc2ccccc2[nH]1` as the compound, how does the Potency read?
A: inconclusive: 11.2 µM [activator, partial curve, poor fit]

Q: Which Potency does the source give for `C=CCC[C@@H](CCCCC)OC(=O)/C=C/[C@@H](O)[C@H](O)C[C@@H](O)CC=C` here?
A: inconclusive: 12.6 µM [activator, partial curve]

Q: For `Cc1c(NC(=O)C2CCCN(S(=O)(=O)c3ccc(Br)s3)C2)c(=O)n(-c2ccccc2)n1C` (stereo not drawn), which Potency is on record?
A: inactive

Q: With `CC(=O)NC(c1ccc(F)c(F)c1)c1nc(-c2ccc3c(c2)OCO3)cs1` (stereo not drawn) as the compound, how does the Potency read?
A: inactive

Q: With `O=C(Nc1ccc(F)cc1)N[C@@H]1C[C@@H]2O[C@H](CO)CC[C@@H]2O[C@@H]1CCc1ccc(C2=CCCC2)cc1` as the compound, how does the Potency read?
A: inconclusive: 44.7 µM [activator, single point]

Q: Which Potency does the source give for `COc1ccc(-c2cn3cccnc3n2)cc1NC(=O)c1c(F)cccc1F` here?
A: inactive

Q: With `CNC(=S)N(CCc1c(C)[nH]c2ccc(Cl)cc12)Cc1cc(OC)c(OC)c(OC)c1` as the compound, how does the Potency read?
A: inconclusive: 15.8 µM [activator, partial curve]

Q: Which Potency does the source give for `COc1cc(C)nc(N(C)S(=O)(=O)c2ccccc2Cl)n1` here?
A: inactive

Q: Which Potency does the source give for `COc1ccc(N=Cc2nc(-c3ccco3)oc2O)cc1` here?
A: inactive

Q: Which Potency does the source give for `COc1cccc(C(=O)C2CCCN(CC3=Cc4cc(OC)ccc4OC3)C2)c1` (stereo not drawn) here?
A: inactive

Q: For `O=C(Nc1ccccc1Sc1ccccc1)c1ccc(F)cc1`, which Potency is on record?
A: inactive

Q: Which Potency does the source give for `CCNC(=O)c1cc2c(c(-c3cccc(-c4cc5ccccc5o4)c3)n1)[C@H](CCO)N(C(=O)NC(C)C)C2` here?
A: inconclusive: 31.6 µM [activator, partial curve, poor fit]

Q: Which Potency does the source give for `COc1ccc(NC(=O)CCCNC(=O)Cn2cnc3sc(C)c(C)c3c2=O)cc1Cl` here?
A: inconclusive: 31.6 µM [activator, single point]

Q: For `O=C(c1csc2c1CCCC2)N1CCN(c2ncccn2)CC1`, which growth rescue (activation) is on record?
A: inconclusive: 17.1% [activator]

Q: With `Cc1nnsc1S(=O)c1ccc(Cl)cc1` (stereo not drawn) as the compound, how does the Potency read?
A: inactive

Q: Which Potency does the source give for `C[C@@H]1CCCN1c1cccc2c1S(=O)(=O)N(C1CC1)CCCO2` here?
A: inconclusive: 39.8 µM [activator, single point]

Q: With `CCOC(=O)c1c(C)c(C(=O)NCc2ccc(OC)cc2)c(C)n1C` as the compound, how does the Potency read?
A: inconclusive: 5.62 µM [activator, full curve]

Q: With `C=CCC[C@H](Cc1ccc(F)cc1)C(=O)OC[C@@H]1CCCN1C(=O)[C@@H](CC=C)CC(=O)NCCO` as the compound, how does the Potency read?
A: inactive

Q: With `c1csc(CN2CCOCC2)c1` as the compound, how does the Potency read?
A: inconclusive: 1 µM [activator, partial curve, poor fit]

Q: For `CCc1nn(CC(=O)NCCC(C)C)c(=O)c2cc3occc3n12`, which Potency is on record?
A: inactive

Q: Which Potency does the source give for `CCCn1c(S(=O)(=O)O)nc2ccccc21` here?
A: inactive

Q: With `c1csc(-c2nn3c(C4CCCCC4)nnc3s2)c1` as the compound, how does the Potency read?
A: inactive

Q: Which Potency does the source give for `COc1ccc(OC)c(-c2csc(NC(=O)Cc3ccccc3OC)n2)c1` here?
A: inactive

Q: With `Cc1ccc(Cc2c(-c3cccc(Cl)c3)nc3ccc(Br)cn23)cc1` as the compound, how does the Potency read?
A: inconclusive: 50.1 µM [activator, single point]

Q: With `CC(=O)c1cccc(NC(=S)N2CCc3ccccc32)c1` as the compound, how does the Potency read?
A: inactive

Q: For `c1ccc(CCNc2nc(-c3ccccn3)nc3ccccc23)cc1`, which Potency is on record?
A: inactive

Q: With `CCOc1ccc(CCNC(=O)C2CCN(c3ncnc4c3nc3n4CCCCC3)CC2)cc1` as the compound, how does the Potency read?
A: inactive

Q: With `O=C(O)c1cc(N2N=C(C(F)(F)F)/C(=C/C=C/c3ccco3)C2=O)ccc1Cl` as the compound, how does the Potency read?
A: inconclusive: 39.8 µM [activator, single point]

Q: For `Clc1cccc(-n2ncc3c(NC4CCCCC4)ncnc32)c1`, which Potency is on record?
A: inactive

Q: With `O=c1[nH]c2cc3c(cc2cc1CN(Cc1ccc2c(c1)OCO2)Cc1nnnn1CC1CCCO1)OCO3` (stereo not drawn) as the compound, how does the Potency read?
A: inconclusive: 50.1 µM [activator, single point]

Q: For `Cc1cccc(N2C(=O)C(O)=C(C(=O)c3cccs3)C2c2cccc(Oc3ccccc3)c2)n1` (stereo not drawn), which Potency is on record?
A: inconclusive: 50.1 µM [activator, single point]

Q: Which Potency does the source give for `Cc1cccc(N2CCN(C(=O)c3cc(S(=O)(=O)N4CCC(C)CC4)cn3C)CC2)c1C` here?
A: inconclusive: 17.8 µM [activator, partial curve, poor fit]

Q: Which Potency does the source give for `Cc1cccc(N2CCN(C(=O)c3ccc4nc(-c5ccco5)c(-c5ccco5)nc4c3)CC2C)c1` (stereo not drawn) here?
A: inconclusive: 12.6 µM [activator, partial curve]

Q: Which Potency does the source give for `CC(C)(C)OC(=O)N1CCC(c2c(C(=O)NCCN3CCC(Cc4ccccc4)CC3)cnn2-c2cccc(Cl)c2)CC1` here?
A: inconclusive: 50.1 µM [activator, single point]

Q: Which Potency does the source give for `COc1cc2cnc(-c3ccccc3)c(C(=O)c3ccc(OCc4ccccc4)cc3)c2cc1OC` here?
A: inconclusive: 20 µM [activator, partial curve, poor fit]

Q: Which Potency does the source give for `COc1ccc(-n2c(SCC(=O)N3CCN(c4ccccc4)CC3)nc3c(c2=O)SCC3)cc1` here?
A: inconclusive: 35.5 µM [activator, single point]

Q: For `O=C(Nc1ccc2c(c1)CCCN2C(=O)c1cccs1)c1cccc(C(F)(F)F)c1`, which Potency is on record?
A: inactive

Q: Which Potency does the source give for `CCOc1ccc(CCNC(=O)CCc2nc(-c3ccc(OC)cc3)no2)cc1OCC` here?
A: inconclusive: 6.31 µM [activator, single point]

Q: Which Potency does the source give for `CCOc1ccc2oc(C(=O)NCc3ccccc3CN3CCCC3)c(C)c2c1` here?
A: inconclusive: 11.2 µM [activator, partial curve, poor fit]

Q: Which Potency does the source give for `Cc1ccc(S(=O)(=O)N(CC(=O)Nc2ccc(C(C)C)cc2)Cc2ccccc2)cc1` here?
A: inactive

Q: With `C=CCN1C(=O)[C@@H](CC(=O)N2CCCCC2)[C@]2(C(=O)OC)CCCCC=C12` as the compound, how does the Potency read?
A: inactive

Q: For `CCN(CC)c1nn2c(=O)c(C(=O)NCc3ccc(OC)cc3OC)cnc2s1`, which Potency is on record?
A: inactive

Q: For `C=CC[C@@H](CC(=O)N(CCO)Cc1ccccc1)C(=O)N[C@@H](COC(=O)[C@@H](CC=C)Cc1ccc(F)cc1)Cc1c[nH]c2ccccc12`, which Potency is on record?
A: inconclusive: 25.1 µM [activator, partial curve, poor fit]

Q: Which Potency does the source give for `Cc1ccc(S(=O)(=O)/N=C/c2c(O)ccc3ccccc23)cc1` here?
A: inconclusive: 1.41 µM [activator, full curve, poor fit]
